Data reported in paper PMC13399123.
Results are given in words; binding and its absence hold for the method and conditions named. In cells and extracts the contact can be indirect. Some binding calls cover weakened binding; strength is not graded here. Where a sequence is shown, tags or fusion partners need not be part of it.

By UniProt entry, the sequences of proteins in these tests, tags left out.
UniProt Q14247: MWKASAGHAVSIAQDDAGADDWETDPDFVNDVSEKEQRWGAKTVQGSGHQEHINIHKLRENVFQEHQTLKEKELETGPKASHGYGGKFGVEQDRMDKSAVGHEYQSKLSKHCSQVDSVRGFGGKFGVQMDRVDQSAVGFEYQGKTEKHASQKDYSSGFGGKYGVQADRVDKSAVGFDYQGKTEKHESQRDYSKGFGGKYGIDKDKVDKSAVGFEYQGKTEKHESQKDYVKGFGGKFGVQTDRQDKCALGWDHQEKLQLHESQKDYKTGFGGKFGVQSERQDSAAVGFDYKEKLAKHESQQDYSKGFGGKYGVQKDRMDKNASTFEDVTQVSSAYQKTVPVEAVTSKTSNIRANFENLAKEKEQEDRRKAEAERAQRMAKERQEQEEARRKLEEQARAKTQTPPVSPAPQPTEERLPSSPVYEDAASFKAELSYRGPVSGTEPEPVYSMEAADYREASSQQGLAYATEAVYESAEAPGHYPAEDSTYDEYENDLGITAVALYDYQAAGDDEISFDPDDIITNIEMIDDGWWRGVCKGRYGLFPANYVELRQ

Target: T1, EGFP-HS1BP3 WT (UniProt Q53T59)
T1 sequence: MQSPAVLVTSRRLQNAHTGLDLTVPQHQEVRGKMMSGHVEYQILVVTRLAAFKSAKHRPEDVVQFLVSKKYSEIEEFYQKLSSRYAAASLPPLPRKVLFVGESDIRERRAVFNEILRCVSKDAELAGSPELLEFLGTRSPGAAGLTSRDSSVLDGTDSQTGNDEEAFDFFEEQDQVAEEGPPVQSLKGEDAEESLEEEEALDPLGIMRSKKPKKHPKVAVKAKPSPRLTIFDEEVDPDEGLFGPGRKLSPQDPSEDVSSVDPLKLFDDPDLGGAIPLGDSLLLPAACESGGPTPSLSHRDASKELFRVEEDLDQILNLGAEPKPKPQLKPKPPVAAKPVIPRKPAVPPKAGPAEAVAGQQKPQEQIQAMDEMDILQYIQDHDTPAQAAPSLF
Experiment: co-IP; GFP-Trap agarose beads, at least 450 ug MKN-74 lysate in RIPA buffer, 2.5 h, four washes in RIPA buffer, immunoblot; for TKS5-EGFP in MKN-74 WT and HS1BP3 KO cells

- binding: binds
Substance: cortactin (CTTN), endogenous in MKN-74 cells (from UniProt Q14247 1-550)
